# Experimental data published in PubChem BioAssay (Tox21).
# “And” between values parts separate entries of the source, which are not always exact repeats. Equal entries are not always repeated. Inconclusive means that the source gave no clear call. Such entries were picked first, then a sample of the others. Where the call is inconclusive, the potency comes from a doubtful curve fit. Some compounds were tested as several samples or in several runs, with calls that do not always agree. The source made the active and inactive calls. Unless noted, the call rests on the fitted dose curve; in most records, active means well fitted curve in the direction sought with a large enough effect in the repeat runs; inconclusive means weak or mixed curves; inactive means no such curve, though single readings can be large; an effect the other way counts as inactive or inconclusive.
# Columns and labels:
# [1] = qHTS assay to identify small molecule agonists of H2AX - cell viability counter screen (AID 1224847; calls by dose curve; further: nearly all actives have a fitted effect of over 30% in size)
# Outline: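 We seed wild-type CHO-K1 cells overnight, treat them for 3 hr at 37C with compounds in 15-concentration series, and quantify remaining viability by CellTiter-Glo luminescence.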
# [2] = A CellTox Green Cytotoxicity Assay to monitor cytotoxicity in HEK293 cells - 40 hour (AID 1224871); further: nearly all actives have a fitted effect of over 45% in size
# Outline: (§1)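 Fluorescence from a DNA-binding dye excluded by viable cells was measured repeatedly in the same HEK293 wells (600 cells/well) during continuous compound exposure at 37 C. Each assay gives one read point: 0, 8, 16, 24, 32 or 40 h.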
# [3] = qHTS RealTime-Glo MT Cell Viability Assay in HEK293 cells - 16 hour (AID 1224872); further: nearly all actives have a fitted effect of over 50% in size
# Outline: (§2)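 Cells + reagent dispensed (600 cells/well, HEK293) → 5 h at 37 C/5% CO2 → 23 nL compound in DMSO pinned → 40 h at 37 C → luminescence read at 0, 8, 16, 24, 32, 40 h.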
# [4] = qHTS RealTime-Glo MT Cell Viability Assay in HEK293 cells - 40 hour (AID 1224874); settings: RealTime-Glo luminescence; max response: stronger effect = lower value; further: nearly all actives have a fitted effect of over 50% in size; on max response: on the % scale 0 is the no-effect control and ±100 the full control effect
# Outline: (§3)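 Luminescence, which tracks viable cell number through reduction of the prosubstrate to a NanoLuc substrate, was read over continuous 37 C culture. Cells (600/well) were premixed with reagent and rested 5 h before 23 nL of compound in DMSO was pinned.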
# [5] = A CellTox Green Cytotoxicity Assay to monitor cytotoxicity in HEK293 cells - 24 hour (AID 1224875); further: nearly all actives have a fitted effect of over 45% in size
# Outline: as §1
# [6] = A CellTox Green Cytotoxicity Assay to monitor cytotoxicity in HepG2 cells - 40 hour (AID 1224879); further: nearly all actives have a fitted effect of over 40% in size
# Outline: (§4)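 Real-time cytotoxicity: fluorescence of a cell-impermeant cyanine dye binding DNA of dead HepG2 cells, measured repeatedly (0–40 h) during compound exposure at 37 C. Cells seeded 600/well with reagent, dosed after 5 h.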
# [7] = A CellTox Green Cytotoxicity Assay to monitor cytotoxicity in HEK293 cells - 32 hour (AID 1224881); further: nearly all actives have a fitted effect of over 40% in size
# Outline: as §1
# [8] = qHTS RealTime-Glo MT Cell Viability Assay in HepG2 cells - 24 hour (AID 1224867); further: nearly all actives have a fitted effect of over 50% in size
# Outline: (§5)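 Real-time, nonlytic viability: 600 HepG2 cells/well mixed with NanoLuc enzyme plus prosubstrate; 5 h settle, compound (DMSO) added by pintool; luminescence monitored over 40 h at 37 C.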
# [9] = qHTS RealTime-Glo MT Cell Viability Assay in HEK293 cells - 32 hour (AID 1224868); further: nearly all actives have a fitted effect of over 50% in size
# Outline: as §2
# [10] = qHTS RealTime-Glo MT Cell Viability Assay in HepG2 cells - 40 hour (AID 1224870); further: nearly all actives have a fitted effect of over 50% in size
# Outline: (§6)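 Real-time viability: cells seeded at 600 per well together with NanoLuc and cell-permeant prosubstrate, compounds added after 5 h incubation. Luminescence tracked at 0, 8, 16, 24, 32 and 40 h of exposure.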
# [11] = qHTS RealTime-Glo MT Cell Viability Assay in HepG2 cells - 8 hour (AID 1224873); further: nearly all actives have a fitted effect of over 55% in size
# Outline: as §6
# [12] = A CellTox Green Cytotoxicity Assay to monitor cytotoxicity in HepG2 cells - 16 hour (AID 1224876); further: nearly all actives have a fitted effect of over 45% in size
# Outline: as §4
# [13] = A CellTox Green Cytotoxicity Assay to monitor cytotoxicity in HepG2 cells - 24 hour (AID 1224878); further: nearly all actives have a fitted effect of over 45% in size; on Cytotoxicity: on the % scale 0 is the no-effect control and ±100 the full control effect
# Outline: as §4
# [14] = qHTS RealTime-Glo MT Cell Viability Assay in HEK293 cells - 0 hour (AID 1224880); further: nearly all actives have a fitted effect of over 45% in size
# Outline: as §3
# [15] = qHTS assay to identify small molecule antagonists of the estrogen related receptor (ERR) signaling pathway from Tox21 library (AID 1224848); further: nearly all actives have a fitted effect of over 50% in size
# Outline: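 ERR cell line, 2,000 cells/well. 6 h settle, then compound (DMSO) added; 18 h at 37 C; ONE-Glo luminescence after 30 min RT.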
# [16] = qHTS RealTime-Glo MT Cell Viability Assay in HepG2 cells - 32 hour (AID 1224877); further: nearly all actives have a fitted effect of over 55% in size
# Outline: as §5
# Potency means the concentration at half of the fitted maximal effect; tags describe the fitted curve by direction and shape.
structure (smiles),measurement,setting,value
c1ccc2c(c1)CCc1ccccc1N2,Potency,[1],"active: 101 µM and inconclusive: 61.9 µM [cytotoxic, single point]"
same,Potency,[2],"inconclusive: 26.8 µM [activator, single point]"
same,Potency,[3],"inconclusive: 43.9 µM [cytotoxic, partial curve]"
same,max response,[4],inactive: -22.1% and inactive: -5.28%
same,Potency,[5],"inconclusive: 49.2 µM [activator, single point]"
same,Potency,[6],"inconclusive: 55.2 µM [activator, partial curve, poor fit]"
same,Potency,[7],"active: 49.2 µM and inconclusive: 26.8 µM [activator, single point]"
O=C1OC2(c3ccccc31)c1cc(Br)c(O)c(Br)c1Oc1c2cc(Br)c(O)c1Br,Potency,[8],"inconclusive: 35.2 µM [falling, partial curve] and inconclusive: 40 µM [falling, partial curve]"
same,Potency,[9],"inconclusive: 22.2 µM [cytotoxic, partial curve, poor fit]"
same,Potency,[10],"inconclusive: 22.2 µM [falling, partial curve] and inconclusive: 31.8 µM [falling, partial curve]"
same,Potency,[11],"inconclusive: 39.5 µM [falling, partial curve] and inconclusive: 44.9 µM [falling, partial curve]"
same,Potency,[4],"inconclusive: 31.8 µM [cytotoxic, partial curve, poor fit]"
same,Potency,[12],active: 4.97 µM and active: 14.2 µM and active: 23.9 µM
same,Potency,[13],active: 4.97 µM and active: 12.7 µM and active: 23.9 µM
same,Potency,[6],active: 5.58 µM and active: 14.2 µM and active: 23.9 µM
same,Potency,[14],active: 9.92 µM and active: 17.9 µM and active: 23.9 µM
same,Potency,[7],active: 4.97 µM and active: 7.11 µM and active: 21.3 µM
SCCCCCCCCS,Potency,[9],inactive
same,Potency,[12],active: 19.5 µM
same,Potency,[13],active: 19.5 µM
same,Potency,[6],active: 19.5 µM
CN(C)CCN(Cc1cccs1)c1ccccn1,Potency,[1],inactive
same,Potency,[2],"inconclusive: 4.51 µM [activator, single point]"
same,Potency,[4],"inconclusive: 38.7 µM [cytotoxic, partial curve, poor fit]"
same,Potency,[5],inactive
same,Potency,[7],"inconclusive: 4.51 µM [activator, single point]"
O=C(Nc1ccc(Cl)cc1)Nc1ccc(Cl)c(Cl)c1,Potency,[15],"inconclusive: 4.33 µM [inhibitor, full curve]"
same,Potency,[8],"inconclusive: 9.77 µM [falling, full curve] and inconclusive: 9.52 µM [falling, full curve]"
same,Potency,[9],active: 4.34 µM and active: 4.36 µM and active: 3.38 µM
same,Potency,[10],"inconclusive: 11 µM [falling, full curve]"
same,Potency,[3],"inconclusive: 5.47 µM [cytotoxic, full curve] and inconclusive: 4.9 µM [cytotoxic, full curve] and inconclusive: 3.79 µM [cytotoxic, full curve]"
same,Potency,[4],active: 4.34 µM and active: 3.89 µM and active: 3.01 µM
same,Potency,[16],"inconclusive: 9.77 µM [cytotoxic, full curve]"
same,Potency,[6],"inconclusive: 9.73 µM [activator, full curve, poor fit] and inconclusive: 19.5 µM [activator, single point] and inconclusive: 8.49 µM [activator, full curve, poor fit]"
CC1=C(/C=C/C(C)=C/C=C/C(C)=C\C(=O)O)C(C)(C)CCC1,Potency,[9],"inconclusive: 12.3 µM [cytotoxic, single point]"
same,Potency,[2],"inconclusive: 24.6 µM [activator, single point]"
same,Potency,[4],"inconclusive: 12.3 µM [cytotoxic, single point]"
same,Potency,[5],"inconclusive: 24.6 µM [activator, single point]"
same,Potency,[13],"inconclusive: 49.1 µM [activator, single point]"
same,Potency,[7],"inconclusive: 24.6 µM [activator, single point]"
CCN(CC)C(=S)SSC(=S)N(CC)CC,Potency,[15],active: 243 nM and active: 55.8 nM and active: 298 nM
same,Potency,[3],"inconclusive: 12.3 µM [cytotoxic, partial curve, poor fit]"
same,Potency,[4],active: 174 nM and active: 656 nM and active: 13.4 µM
same,Potency,[5],"inconclusive: 0.871 µM [activator, partial curve, poor fit]"
same,Potency,[12],"inconclusive: 54.9 µM [activator, single point]"
same,Potency,[16],"inconclusive: 155 nM [cytotoxic, full curve, poor fit] and active: 89.1 nM and inconclusive: 26.8 µM [cytotoxic, partial curve, poor fit]"
same,Potency,[13],"inconclusive: 0.245 µM [activator, full curve, poor fit]"
same,Potency,[6],"inconclusive: 195 nM [activator, full curve, poor fit] and active: 100 nM and inconclusive: 134 nM [activator, full curve, poor fit]"
same,Potency,[7],"inconclusive: 155 nM [activator, full curve, poor fit] and active: 141 nM"
CSCCC=O,Potency,[9],"inconclusive: 24.5 µM [rising, partial curve, poor fit]"
same,Potency,[6],"inconclusive: 54.9 µM [activator, single point]"
Cc1nc(-c2ccc3c(c2)CCN(CCC2CCC(NC(=O)/C=C/c4ccc(F)cc4)CC2)CC3)no1 (configuration not stated),Potency,[9],"inconclusive: 0.491 µM [cytotoxic, full curve]"
same,Potency,[2],"inconclusive: 3.1 µM [activator, partial curve, poor fit]"
same,Potency,[3],"inconclusive: 0.873 µM [cytotoxic, full curve]"
same,Potency,[4],"inconclusive: 0.39 µM [cytotoxic, full curve]"
same,Potency,[6],"inconclusive: 3.47 µM [activator, full curve, poor fit]"
same,Potency,[7],"inconclusive: 4.91 µM [activator, partial curve, poor fit]"
CC[C@H](c1ccc(O)cc1)[C@@H](CC)c1ccc(O)cc1,Potency,[8],"inconclusive: 49 µM [falling, single point]"
same,Potency,[9],"inconclusive: 30.1 µM [cytotoxic, single point]"
same,Potency,[3],"inconclusive: 24.5 µM [cytotoxic, partial curve]"
same,Potency,[11],"inconclusive: 49 µM [falling, single point]"
same,Potency,[4],"inconclusive: 26.8 µM [cytotoxic, partial curve]"
same,Potency,[5],"inconclusive: 54.9 µM [activator, single point]"
same,Potency,[12],"inconclusive: 26.8 µM [activator, single point]"
same,Potency,[13],"active: 49 µM and inconclusive: 26.8 µM [activator, single point]"
same,Potency,[6],"inconclusive: 26.8 µM [activator, single point]"
CCCCC(CC)COS(=O)(=O)O (configuration not stated),Potency,[9],inactive
same,Potency,[2],"inconclusive: 1.1 µM [activator, single point]"
same,Potency,[5],"inconclusive: 1.1 µM [activator, single point]"
same,Potency,[13],inactive
same,Potency,[7],"inconclusive: 1.1 µM [activator, single point]"
Cc1ccc(S(=O)(=O)NC(=O)NN2CCCCCC2)cc1,Potency,[15],inactive
same,Potency,[14],inactive
CC[C@]12CCCN3CCc4c(n(c5ccccc45)[C@@](O)(C(=O)OC)C1)[C@@H]32,Potency,[9],inactive
same,Potency,[4],"inconclusive: 43.6 µM [cytotoxic, partial curve, poor fit]"
OCCN1CCN(CC/C=C2/c3ccccc3Sc3ccc(C(F)(F)F)cc32)CC1,Potency,[15],active: 29.8 µM
same,Potency,[8],active: 21.3 µM
same,Potency,[2],active: 26.8 µM
same,Potency,[3],active: 19 µM
same,Potency,[12],active: 23.9 µM
same,Potency,[14],"inconclusive: 21.3 µM [rising, partial curve]"
COc1ccc2nc(S(=O)Cc3ncc(C)c(OC)c3C)[nH]c2c1 (configuration not stated),Potency,[1],"inconclusive: 125 µM [cytotoxic, single point]"
same,Potency,[3],active: 21.6 µM
same,Potency,[11],"inconclusive: 48.4 µM [falling, single point]"
same,Potency,[14],"inconclusive: 48.4 µM [falling, single point]"
same,Potency,[7],"inconclusive: 0.003 µM [activator, full curve, poor fit]"
O=C(c1ccc(OCCN2CCCCC2)cc1)c1c(-c2ccc(O)cc2)sc2cc(O)ccc12,Potency,[1],"inconclusive: 127 µM [cytotoxic, single point] and active: 113 µM"
same,Potency,[10],"inconclusive: 55 µM [falling, single point]"
same,Potency,[2],"inconclusive: 23.9 µM [activator, partial curve, poor fit]"
same,Potency,[3],"active: 19.5 µM and active: 21.9 µM and inconclusive: 23.9 µM [cytotoxic, single point]"
same,Potency,[4],active: 17.4 µM and active: 21.9 µM and active: 23.9 µM
same,Potency,[5],"inconclusive: 55 µM [activator, single point]"
same,Potency,[12],"inconclusive: 55 µM [activator, single point] and inconclusive: 54.9 µM [activator, single point]"
same,Potency,[16],active: 55 µM and active: 54.9 µM
same,Potency,[13],"inconclusive: 23.9 µM [activator, single point]"
same,Potency,[14],"inconclusive: 55 µM [falling, single point]"
same,Potency,[7],"inconclusive: 55 µM [activator, single point]"
